# The supplement of paper PMC11417369
# This is one part of the list.
# System: PfSIP2 AP2 domain 1 (GST-tagged)
# Assay: gcPBM binding intensity (ln(normalized median fluorescence intensity)); higher = stronger DNA binding
# Procedure, shortened: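 In this array assay, P. falciparum DNA-binding domains with a GST tag, expressed in E. coli, were applied for 1 h to primer-extended double-stranded 36-bp intergenic genomic probes and negative controls on an Agilent 4 × 180k array. Bound protein was visualised with Alexa488 anti-GST antibody at 488 nm. Binding intensity is the highest Masliner-normalised natural-log median intensity across replicate spots of either probe orientation.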
row,Sequence,gcPBM binding intensity (ln)
1,AATCATTAAAGCATAATGTTTATGATCAATATGAAA [CACACA_negctrl_site887],6.64
2,TACACCCACATATATATACACACTTTTATTTAAATA [CACACA_site1596],7.34
3,AAAAAAAATAATGTTGCACACAACAACAAACAAAAA [CACACA_site3290],7.19
4,AATATATATATATGTGCACACATATATAATATGTAT [CACACA_site716],8.55
5,CAATATGGAAAATAAAGTACGCACACAAAAATTCTC [XGTACX_site4793],7.37
6,TAGATAAAATGAACATGTACTCATCTTAATATATAT [XGTACX_site34],7.07
7,GGCATGACTATCTGCACACATAAAAATAAGAAATAC [CACACA_site841],7.56
8,GATTTATACAAATATGTACACACTAATTATATATTA [CACACA_site8045],7.33
9,ATAAACAGAAAAAAAAAAAAAAAAAAAAAAAAAAAA [CACACA_negctrl_site143],6.98
10,TTTTTTTTCTCACAAAAAATAATTAACAAAAAGGAA [XGTACX_negctrl_site154],7.21
11,ATAAAAAAAAAAAATACACACATATATTTATTTATA [CACACA_site6903],6.97
12,TTTATATGGATTTTTTTTTAATATTTCTTTTAATTT [TGCATGCA_negctrl_site361],6.68
13,TAAAAAAAAAAAAAAAGTACAAAAAAAATATTTTTT [XGTACX_site7941],6.74
14,ATATGCTATTTACTAGTGCAAAATATTTAAAATATG [GTGCAC_site9517],8.53
15,GTTGCACAATGTTACACACACAATATAGATCGTTAA [CACACA_site6717],7.47
16,TTAATATAAGCAAATACACACACACCGATATATATA [CACACA_site9269],7.3
17,AACAGACAAAGACACACACACATACATACATACATA [CACACA_site6351],7.25
18,TATCATATTTTTATATGTACATAACATAAAAAAAAA [XGTACX_site2152],7.26
19,TGATTTGTGCCGATTTGTACACATTTATATATATAT [XGTACX_site2154],8.76
20,TACATACATACATACACACACATATATATATATATA [CACACA_site1944],9.86
21,ATTTTTTCATATTCTACACACGTGAACAAATGAGTC [CACACA_site5635],7.21
22,CAATGTTAACATATTACACACATATGTATATATAAT [CACACA_site8878],6.91

row,Sequence,gcPBM binding intensity (ln)
1,GACAACTCTTTTCATACACACAAAAAAAAAAAAATA [CACACA_site2361],7.34
2,TCACATATATATTAATGTACATATATTTTTTATGTA [XGTACX_site5125],7.01
3,GATATATCCTATGTTATTTTTATGGTGTAATTTAGT [XGTACX_negctrl_site112],7.05
4,AGAAAGAAAATATATACACACAAAAAAAAATATATA [CACACA_site1412],6.94
5,TTTTTTTTATGTATCACACATAATTTTTTATTATGA [CACACA_site5534],6.79
6,ATAATAACAAGGCGCTGTACTGTACCGTTTTTCATA [XGTACX_site6135],6.78
7,CATCCACAAATATGTACACACATATATAAATATGTA [CACACA_site7407],7.28
8,ATTATTAATAATTGTGTGCACAAATATTTATATGCT,8.19
9,ATATCAATATAAAGTACACACTATAGTATGTATTAT [CACACA_site5286],7
10,ATATTGTATTATCTTTATGTACCAAAAAAAAAAAAA [CACACA_negctrl_site1036],7.09
11,ATGAACATACAATATACACACATATAGATTTATATT [CACACA_site6524],7.02
12,TCATTATTAATATGTAGTACATTATATGATATGTAT [XGTACX_site8978],7.04
13,TTCTTTTTAAATTACACACACATATATATCTGTATA [CACACA_site5863],7.28
14,TAAAGGATTTTCGAAGCATGCCACCTGTGACATACT [TGCATGCA_site130],6.5
15,TTTATACAATTAGACACACACAAAAAGTATATATAT [CACACA_site1082],7.42
16,CATTCAAAGAAAAACTGTACGTGTAGCAAACGTCAT [XGTACX_site2576],6.88
17,CAAATACCCGGACACACACACACAAAAAAAAAAAAA [CACACA_site4441],7.41
18,ATGGGTATATTTCCACGTACAAAAAATCCGAATTGC [XGTACX_site1490],7.13
19,ATATAATTACATTGATGTACACGAAATGATTAACAT [XGTACX_site5183],6.92
20,GTATATATTAAAAAAAAAAAAAAAAAATTAAAATTA [CACACA_negctrl_site572],6.71
21,GGAATATTAATAAGAGTGCATTTTGTATTCAATATG,8.81
22,AAAAAAAAAATTCATTGTACATATATATATATATAT [XGTACX_site8346],9.59

row,Sequence,gcPBM binding intensity (ln)
1,TAGACTGGACATTAATGTACATAAATATATATGTAT [XGTACX_site7726],6.86
2,TATAAGAAAAATAACACACACATAAACATATATACA [CACACA_site2785],7.08
3,ATAAGAAGAAGAAAAACACACATATGTAGATATATA [CACACA_site7469],6.98
4,TGGTTATTTATCTTTATTATAAATATTTACAAATAA [CACACA_negctrl_site1773],7.21
5,ATATATATATATATATGTACTTATTTATATATTTAT [XGTACX_site7811],9.57
6,ATGCTTCCTTAGGAATGTACACACATATATAATATG [XGTACX_site873],6.98
7,ATAAAAATAAAAAACTGTACATACAAGATGTTACAG [XGTACX_site6690],6.85
8,AAATAATATTTTACATGTACATAATAATTATTGGAT [XGTACX_site2783],7.07
9,TAAATATTTAAATATTGTACTAGGTATAATTGAATA [XGTACX_site3604],6.79
10,TTATTGTACTTGCTCGCATGCAATAAAAATATATTA [TGCATGCA_site580],7.01
11,ATATATATAAACAAAAGTACATATATAAATTCATTT [XGTACX_site3482],7.46
12,TCTTATATTATATTGTGTATTAAAATTTAACTTCAA [TGCATGCA_negctrl_site565],6.94
13,TTAAAGTTACATTCGACACACACATAACAACTAAAT [CACACA_site9130],7.1
14,ATATATGTATATATGTACATGAATATATAAAGAAAA [CACACA_negctrl_site315],7.16
15,GTTTATATTTAATTTTTTTGTTTTTTTGTGTAATTC [XGTACX_negctrl_site194],6.77
16,TATTTATACTAATATGCATGTAATCGAAATACAGCT [TGCATGCA_site457],6.98
17,ACAAATAAATAAATATGTACTTAATTATATAATTGA [XGTACX_site5626],6.87
18,ATCTATTCACACTTTTAAAAATTAAATATATTATAT [TGCATGCA_negctrl_site610],7.54
19,TAATTTTTTTTTTATAGTACACATATTAAAGAATTA [XGTACX_site2485],7.02
20,AATAAAAAAAAAATATATATTTTTTTTTTTTTTTTT [CACACA_negctrl_site54],7.38
21,TATATATATATATGTAGTACTTTACAAAATAATTCG [XGTACX_site5322],9.83
22,TTATTTATACGCTATGAGTTTGATACAAACAATTAA [XGTACX_negctrl_site456],6.99

row,Sequence,gcPBM binding intensity (ln)
1,TTTTTACGGAATTAGAGAAAAGAAATAAAAAAAAAA [XGTACX_negctrl_site436],6.84
2,TAGTTATCACATTGCACACACATTTCCTTTTACATT [CACACA_site7589],7.29
3,GCATAACCTTTATATTGTACATATACCTTTATTGTT [XGTACX_site6046],7.24
4,AATAAATTCATGATAGTGCAAAAATTATTTTTGTTA,8.49
5,TTTTTTGTTATTTTCCGTTTTTTTCCATTATAATTT [GTGCAC_negctrl_site461],7.03
6,TATTCAAAGAAAAACTGTACGTGTAGCCTACATCCT [XGTACX_site7707],6.71
7,ACGTTAAAAACAAGTTGTACACAATAAATTATTCTT [XGTACX_site6321],7.27
8,ATTATCCATCAAAAGGTGCAAATTTTTAATTATAAA [GTGCAC_site9932],11.1
9,AAAGATGATAAAATATGTACACACAGTTTATACATT [XGTACX_site8703],6.88
10,TGAGTCTTTTACATTGCACACACATTTCTTTCCTTT [CACACA_site8978],7.3
11,AAAAAAATATATATATATATATATATATTATATATG [GTGCAC_negctrl_site654],7.49
12,TTTAAAAAAAAAAAAAAAAAAAAAAAAAAAAATTTG [CACACA_negctrl_site1235],6.45
13,TAATTATAGGTATACACACACATACATTTACATAAC [CACACA_site7509],7.47
14,TTTTATTATTTTTGTTGTACAGTATACTGTATGATT [XGTACX_site5359],7.18
15,ATATACTATTATGTGTGTACATAATAATTTATTATA [XGTACX_site3776],7.17
16,AACAAACACAGACACACACACACACTAATATGATTA [CACACA_site8770],7.13
17,TCATACATTTTCCTTGCACACATTTATAATTAATGG [CACACA_site4511],9.07
18,TTATCACATTATTGCACACACATAAAGAAAAAAATA [CACACA_site2841],7.66
19,AAAGATACTTTCCTCAAACACACAAAACTATACAAC [CACACA_site1475],7.12
20,AATAAAAAGAAACACACACACACACCCATATATATA [CACACA_site3589],7.31
21,ATATAAGAACAAAATTGTACATAAATATTTATATAA [XGTACX_site7404],6.99
22,AAAAAAAAGGAAAATAAAAATAAAAAAAAATAATAA [XGTACX_negctrl_site601],6.71
